{"source": "paper PMC13657631", "about": "“Product-stabilized filamentation by human glutamine synthetase allosterically tunes metabolic activity” (eLife, 2026)", "proteins": {"B1": {"name": "human glutamine synthetase R298A (enzyme)", "chain": "not shown", "notes": "human glutamine synthetase with R298A; also called loop variant R298A; source: E. coli, purified (His6-SUMO tagged GLUL variant, SEC); copies: 10"}, "B2": {"name": "N-terminally His6-tagged human glutamine synthetase (enzyme)", "chain": "not shown", "notes": "human glutamine synthetase; expression vector ordered from ATUM; also called His6-tagged GS; 6x HIS-conjugated human glutamine synthetase; source: E. coli BL21(DE3), purified (HisTrap, Superose 6 SEC); not shown: His6, N-terminal, kept"}}, "key": {"[1]": {"molecular_target": "the molecule itself", "assay": "cryo-EM structure; turnover conditions (5 mM ATP, 25 mM ammonium chloride, 50 mM glutamate), decamer particles; monomers to decamer"}, "[2]": {"molecular_target": "the molecule itself", "assay": "negative-stain electron microscopy; GS ~0.01-0.05 mg/mL in base buffer, 0.7% uranyl formate, 2D classification and averaging"}}}
{"protein": "B1", "values": [{"measurement": "stoichiometry N", "setting": "[1]", "result": 10}]}
{"protein": "B2", "values": [{"measurement": "stoichiometry N", "setting": "[2]", "result": 10}]}
